For this assay, the target named is Recombinant heterodimeric HCV NS3/NS4A protease (strain 1a) (Hepatitis C virus genotype 1a, UniProt P27958). In words: biochemical. As for the experimental part:
Spectrophotometric Assay: Spectrophotometric assay for the HCV serine protease was performed on the inventive compounds by following the procedure described by R. Zhang et al, Analytical Biochemistry, 270 (1999) 268-275, the disclosure of which is incorporated herein by reference. The assay based on the proteolysis of chromogenic ester substrates is suitable for the continuous monitoring of HCV NS3 protease activity. The substrates were derived from the P side of the NS5A-NS5B junction sequence (Ac-DTEDVVX(Nva), where X=A or P) whose C-terminal carboxyl groups were esterified with one of four different chromophoric alcohols (3- or 4-nitrophenol, 7-hydroxy-4-methyl-coumarin, or 4-phenylazophenol). […] Materials and Methods:
Materials: Chemical reagents for assay related buffers were obtained from Sigma Chemical Company (St. Louis, Mo.). Reagents for peptide synthesis were from Aldrich Chemicals, Novabiochem (San Diego, Calif.), Applied Biosystems (Foster City, Calif.) and Perseptive Biosystems (Framingham, Mass.). Peptides were synthesized manually or on an automated ABI model 431A synthesizer (from Applied Biosystems). UV/VIS Spectrometer model LAMBDA 12 was from Perkin Elmer (Norwalk, Conn.) and 96-well UV plates were obtained from Corning (Corning, N.Y.). The prewarming block was from USA Scientific (Ocala, Fla.) and the 96-well plate vortexer was from Labline Instruments (Melrose Park, Ill.). A Spectramax Plus microtiter plate reader with monochrometer was obtained from Molecular Devices (Sunnyvale, Calif.).
Protein concentrations were determined by the Biorad dye method using recombinant HCV protease standards previously quantified by amino acid analysis. Prior to assay initiation, the enzyme storage buffer (50 mM sodium phosphate pH 8.0, 300 mM NaCl, 10% glycerol, 0.05% lauryl maltoside and 10 mM DTT) was exchanged for the assay buffer (25 mM MOPS pH 6.5, 300 mM NaCl, 10% glycerol, 0.05% lauryl maltoside, 5 μM EDTA and 5 μM DTT) utilizing a Biorad Bio-Spin P-6 prepacked column.
Substrate Synthesis and Purification: The synthesis of the substrates was done as reported by R. Zhang et al, (ibid.) and was initiated by anchoring Fmoc-Nva-OH to 2-chlorotrityl chloride resin using a standard protocol (K. Barlos et al, Int. J. Pept. Protein Res., 37 (1991), 513-520). The peptides were subsequently assembled, using Fmoc chemistry, either manually or on an automatic ABI model 431 peptide synthesizer. […] The combined filtrate and DCM wash was evaporated azeotropically (or repeatedly extracted by aqueous Na2CO3 solution) to remove the acid used in cleavage. The DCM phase was dried over Na2SO4 and evaporated.
The ester substrates were assembled using standard acid-alcohol coupling procedures (K. Holmber et al, Acta Chem. Scand., B33 (1979) 410-412). Peptide fragments were dissolved in anhydrous pyridine (30-60 mg/ml) to which 10 molar equivalents of chromophore and a catalytic amount (0.1 eq.) of para-toluenesulfonic acid (pTSA) were added. Dicyclohexylcarbodiimide (DCC, 3 eq.) was added to initiate the coupling reactions. […] Pyridine solvent was evaporated under vacuum and further removed by azeotropic evaporation with toluene. The peptide ester was deprotected with 95% TFA in DCM for two hours and extracted three times with anhydrous ethyl ether to remove excess chromophore. The deprotected substrate was purified by reversed phase HPLC on a C3 or C8 column with a 30% to 60% acetonitrile gradient (using six column volumes).

Where [1] appears, read: Table 3, solid phase compounds, read-out: Ki* CLASS.

Structures are written as SMILES. Where two headings read alike, the source gives them in different places. Starred links: 1 amine or outer side, 2 acyl side, 3 side chain; linkers in the order of their positions; H or OH if unused. Non-standard residues stand in square brackets, D forms with d. Residues, ends and D or L forms follow the SMILES beside them. *: point of attachment. Phenylacetyl(3-CH2COOH) = O=C(O)Cc1cccc(CC(=O)*)c1; Benzoyl(3-COOH) = O=C(O)c1cccc(C(=O)*)c1; Benzoyl(4-COOH) = O=C(O)c1ccc(C(=O)*)cc1; Gly(NCH2CH2Ph) = O=C(O)CNCCc1ccccc1; Isobutyloxycarbonyl = CC(C)COC(=O)*; N(CH2CH2COOH)Gly = O=C(O)CCNCC(=O)O; Cyclopentylacetyl = O=C(CC1CCCC1)*; X13 = CCCCCC12CCC(OC(=O)*)(CC1)CC2; X4 = CCCC(N[*:1])C(=O)C(=O)[*:2]; X29 = O=C(O)Cc1ccc(CC(=O)*)cc1; X37 = COC(=O)c1ccc(OC(=O)*)cc1; X5 = CCOC(=O)C1CCC(OC(=O)*)CC1; Chg = N[C@H](C(=O)O)C1CCCCC1; Phg = N[C@H](C(=O)O)c1ccccc1; X10 = O=C(O)C1CCCC(C(=O)*)C1; X28 = O=C(O)C1CCC(C(=O)*)CC1; X33 = COC(=O)C(C)(C)COC(=O)*; X3 = O=C(OC1CCCCC1)* A value given as a limit tells only on which side of the number the result lay.

`CCCC(NC(=O)CN(CCC(=O)OC(C)(C)C)C(=O)[C@@H](NC(=O)OCC(C)C)C1CCCCC1)C(=O)C(=O)NCC(=O)N[C@H](C(N)=O)c1ccccc1` (stereo partly drawn): under setting [1], the inhibition constant (Ki) (as a rule, a dissociation constant, usually derived from enzyme kinetics or from competition with a known ligand) was > 1000 nM. Same read-out and setting: under `CCCC(NC(=O)CN(CCc1ccccc1)C(=O)[C@@H](NC(=O)CC1CCCC1)C1CCCCC1)C(=O)C(=O)NCC(=O)N[C@H](C(N)=O)c1ccccc1` (stereo partly drawn) (Cyclopentylacetyl-[Chg][Gly(NCH2CH2Ph)][X4]G[Phg]-NH2) stands 101 to 1000 nM. As for `CCCC(NC(=O)[C@H](CC(C)C)NC(=O)[C@@H](NC(=O)OCC(C)C)C1CCCCC1)C(=O)C(=O)NCC(=O)N[C@H](C(=O)O)c1ccccc1` (stereo partly drawn) (Isobutyloxycarbonyl-[Chg]L[X4]G[Phg]-OH), the Ki was 101 to 1000 nM. Consider `CCCC(NC(=O)CN(CCC(=O)O)C(=O)[C@@H](NC(=O)OCC(C)C)C1CCCCC1)C(=O)C(=O)NCC(=O)N[C@H](C(N)=O)c1ccccc1` (stereo partly drawn) (Isobutyloxycarbonyl-[Chg][N(CH2CH2COOH)Gly][X4]G[Phg]-NH2), for which the Ki under setting [1] was > 1000 nM. With `CCCC(NC(=O)[C@H](CC(C)C)NC(=O)[C@@H](NC(=O)OC1CCCCC1)C1CCCCC1)C(=O)C(=O)NCC(=O)N[C@H](C(=O)O)c1ccccc1` (stereo partly drawn) (X3-[Chg]L[X4]G[Phg]-OH), under setting [1], the Ki fell in the range of 101 to 1000 nM. On the same count and under the same terms, for `CCCC(NC(=O)[C@H](CC(C)C)NC(=O)[C@@H](NC(=O)OC1CCC(C(=O)OCC)CC1)C1CCCCC1)C(=O)C(=O)NCC(=O)N[C@H](C(=O)O)c1ccccc1` (stereo partly drawn) (X5-[Chg]L[X4]G[Phg]-OH) the value was 101 to 1000 nM.

As to `CCCC(NC(=O)[C@H](CC(C)C)NC(=O)[C@@H](NC(=O)C1CCCC(C(=O)O)C1)C1CCCCC1)C(=O)C(=O)NCC(=O)N[C@H](C(=O)O)c1ccccc1` (stereo partly drawn) (X10-[Chg]L[X4]G[Phg]-OH), the Ki under setting [1] fell in the range of 101 to 1000 nM. For the compound `CCCC(NC(=O)[C@H](CC(C)C)NC(=O)[C@@H](NC(=O)C1CCC(C(=O)O)CC1)C1CCCCC1)C(=O)C(=O)NCC(=O)N[C@H](C(=O)O)c1ccccc1` (stereo partly drawn) (X28-[Chg]L[X4]G[Phg]-OH), the inhibition constant Ki under setting [1] lay within 101 to 1000 nM.

For the compound `CCCC(NC(=O)[C@H](CC(C)C)NC(=O)[C@@H](NC(=O)Cc1ccc(CC(=O)O)cc1)C1CCCCC1)C(=O)C(=O)NCC(=O)N[C@H](C(=O)O)c1ccccc1` (stereo partly drawn) (X29-[Chg]L[X4]G[Phg]-OH), under setting [1], the inhibition constant Ki is 101 to 1000 nM. Still for that read-out and setting: for `CCCC(NC(=O)[C@H](CC(C)C)NC(=O)[C@@H](NC(=O)OCC(C)(C)C(=O)OC)C1CCCCC1)C(=O)C(=O)NCC(=O)N[C@H](C(=O)O)c1ccccc1` (stereo partly drawn) (X33-[Chg]L[X4]G[Phg]-OH) the value was 101 to 1000 nM. On to `CCCC(NC(=O)[C@H](CC(C)C)NC(=O)[C@@H](NC(=O)Oc1ccc(C(=O)OC)cc1)C1CCCCC1)C(=O)C(=O)NCC(=O)N[C@H](C(=O)O)c1ccccc1` (stereo partly drawn) (X37-[Chg]L[X4]G[Phg]-OH), for which the Ki lay in the range of 101 to 1000 nM.

Take `CCCC(NC(=O)[C@H](CC(C)C)NC(=O)[C@@H](NC(=O)c1cccc(C(=O)O)c1)C1CCCCC1)C(=O)C(=O)NCC(=O)N[C@H](C(=O)O)c1ccccc1` (stereo partly drawn) ({Benzoyl(3-COOH)}-[Chg]L[X4]G[Phg]-OH): the Ki under setting [1] is 101 to 1000 nM. With `CCCC(NC(=O)[C@H](CC(C)C)NC(=O)[C@@H](NC(=O)c1ccc(C(=O)O)cc1)C1CCCCC1)C(=O)C(=O)NCC(=O)N[C@H](C(=O)O)c1ccccc1` (stereo partly drawn) ({Benzoyl(4-COOH)}-[Chg]L[X4]G[Phg]-OH), the Ki under setting [1] fell in the range of 101 to 1000 nM. Regarding `CCCC(NC(=O)[C@H](CC(C)C)NC(=O)[C@@H](NC(=O)Cc1cccc(CC(=O)O)c1)C1CCCCC1)C(=O)C(=O)NCC(=O)N[C@H](C(=O)O)c1ccccc1` (stereo partly drawn) ({Phenylacetyl(3-CH2COOH)}-[Chg]L[X4]G[Phg]-OH), the Ki under setting [1] was 101 to 1000 nM. Regarding `CCCCCC12CCC(OC(=O)N[C@H](C(=O)N[C@@H](CC(C)C)C(=O)NC(CCC)C(=O)C(=O)NCC(=O)N[C@H](C(N)=O)c3ccccc3)C3CCCCC3)(CC1)CC2` (stereo partly drawn) [Example 1] (X13-[Chg]L[X4]G[Phg]-NH2), the Ki (HCV protease continuous assay, Table 1, read-out: Ki* Range) was > 1000 nM.
